{"source": "the antibiotic and cytotoxicity screens of Wong et al. (2023)", "note": "This is one part of the list.", "data": [{"system": "HepG2", "experiment": "cytotoxicity call (relative viability < 0.9)", "conditions": "10 µM", "values": [{"smiles": "C[C@@H]1CCCCO[C@H](CN(C)S(=O)(=O)c2cccs2)[C@H](C)CN([C@H](C)CO)C(=O)c2cc(NC(=O)Cc3ccccc3)ccc2O1", "cytotoxicity call": "inactive"}, {"smiles": "CS(=O)(=O)N1C[C@H]2CN(C(=O)c3cnccn3)C[C@@H]2C1", "cytotoxicity call": "inactive"}, {"smiles": "CC(C)C[C@H](NC(=O)CNC(=O)c1cc(Cl)ccc1Cl)B1OC(=O)C[C@](CC(=O)O)(C(=O)O)O1", "cytotoxicity call": "active"}, {"smiles": "C[C@@H]1CCCCO[C@@H](CN(C)Cc2ccc(C(=O)O)cc2)[C@H](C)CN([C@H](C)CO)C(=O)c2cc(NS(=O)(=O)c3ccc(Cl)cc3)ccc2O1", "cytotoxicity call": "inactive"}, {"smiles": "CC(=O)N1CCn2nncc2C[C@@]1(C)C1CC1", "cytotoxicity call": "inactive"}, {"smiles": "CN(C)C(=O)C[C@@H]1C=C[C@@H](NC(=O)C2CC2)[C@H](CO)O1", "cytotoxicity call": "inactive"}, {"smiles": "CC(C)NC(=O)N[C@@H]1C=C[C@@H](CC(=O)NCCCN(C)C)O[C@@H]1CO", "cytotoxicity call": "inactive"}, {"smiles": "COc1cnc(-n2cnc(C)n2)c2c1c(C(=O)C(=O)N1CCN(C(=O)c3ccccc3)CC1)cn2COP(=O)(O)O", "cytotoxicity call": "inactive"}, {"smiles": "C[C@@H]1CN([C@@H](C)CO)C(=O)c2cc(C#CC3(O)CCCC3)cnc2O[C@@H]1CN(C)C(=O)C1CCCCC1", "cytotoxicity call": "inactive"}, {"smiles": "CCn1cc(C(=O)O)c(=O)c2cc(F)c(N3CCNC(C)C3)c(F)c21.Cl", "note": "(stereo not drawn)", "cytotoxicity call": "inactive"}, {"smiles": "COc1cccc(S(=O)(=O)N[C@H]2CC[C@@H](CC(=O)NC3CCC3)O[C@H]2CO)c1", "cytotoxicity call": "inactive"}, {"smiles": "O=C(C[C@H]1C[C@@H]2c3cc(NS(=O)(=O)c4ccc(F)cc4)ccc3O[C@@H]2[C@H](CO)O1)NC1CCCC1", "cytotoxicity call": "inactive"}, {"smiles": "C[C@H]1CN([C@@H](C)CO)C(=O)c2ccccc2-c2ccccc2CO[C@H]1CN(C)Cc1ccc(C(F)(F)F)cc1", "cytotoxicity call": "inactive"}]}]}
